# Reference: PubChem BioAssay AID1460 (National Center for Advancing Translational Sciences (NCATS), 2008)
# Several values for one entry are separate records, joined by “and”; a condition that tells them apart may be missing. Equal values may be shown once. The campaign covered roughly 270,000 compounds. About 5,800 (2.1%) were called active. Inconclusive means that the source gave no clear call. Such entries were picked first, then a sample of the others. Calls come from the whole dose curve; as a rule, active = well fitted inhibition curve with a large enough effect; inconclusive = small, poorly fitted or top-dose-only effect; inactive = flat fitted curve, though single readings scatter. Where the call is inconclusive, the potency comes from a doubtful curve fit.
# Biological target: Microtubule-associated protein tau (Homo sapiens) (UniProt P10636)
# Assay: qHTS for Inhibitors of Tau Fibril Formation, Thioflavin T Binding; note: nearly all actives have a fitted effect of over 55% in size
# Conditions: recombinant tau K18 P301L (four-repeat tau fragment), heparin-induced fibrillization, ThT fluorescence; series mostly up to 57.4 µM
# In short: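 K18 P301L tau (15 uM + 0.24 uM Alexa 594-tagged), heparin 20 uM, NaOAc pH 7, 6 h 37 C; ThT 30 uM, 1 h RT, ex 450/em 510 nm.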
# Potency is the fitted concentration of half-maximal effect; tags give direction and shape of the fitted curve.
# Chain of UniProt P10636 (P10636 whole entry, looked up): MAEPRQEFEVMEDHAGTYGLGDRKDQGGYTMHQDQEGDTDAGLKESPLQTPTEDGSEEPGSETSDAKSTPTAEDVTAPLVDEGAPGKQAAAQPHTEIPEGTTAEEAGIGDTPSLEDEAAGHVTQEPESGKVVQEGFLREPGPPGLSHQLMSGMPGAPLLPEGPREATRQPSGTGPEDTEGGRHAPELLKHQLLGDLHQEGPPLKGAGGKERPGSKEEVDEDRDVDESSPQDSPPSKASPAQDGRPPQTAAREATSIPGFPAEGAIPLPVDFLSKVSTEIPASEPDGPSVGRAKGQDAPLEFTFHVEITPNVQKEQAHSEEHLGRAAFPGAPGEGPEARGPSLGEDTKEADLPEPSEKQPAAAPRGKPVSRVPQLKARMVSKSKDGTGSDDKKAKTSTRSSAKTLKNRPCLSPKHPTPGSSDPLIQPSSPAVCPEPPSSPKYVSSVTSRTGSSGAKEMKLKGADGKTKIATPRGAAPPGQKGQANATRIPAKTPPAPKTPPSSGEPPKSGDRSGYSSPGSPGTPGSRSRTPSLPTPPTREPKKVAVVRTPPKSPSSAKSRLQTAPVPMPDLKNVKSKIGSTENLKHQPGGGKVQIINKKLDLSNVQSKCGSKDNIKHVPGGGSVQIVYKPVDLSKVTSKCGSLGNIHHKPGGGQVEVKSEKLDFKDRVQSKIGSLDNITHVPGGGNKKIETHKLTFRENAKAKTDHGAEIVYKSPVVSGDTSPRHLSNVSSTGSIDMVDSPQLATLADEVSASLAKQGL
row,Compound,Potency
1,CC1=C(O)C(=O)[C@H]2O[C@@H]2C1=O,active: 2 µM
2,CCc1ccc(NC(=O)c2cccn(Cc3cccc([N+](=O)[O-])c3)c2=O)cc1,"inconclusive: 15.8 µM [inhibitor, partial curve]"
3,CCOC(=O)C1=CC(=C2C(=O)N(CC)C(=S)N(CC)C2=O)c2ccccc2O1,"inconclusive: 25.1 µM [inhibitor, partial curve]"
4,CCOc1ccc2nc(N3CCC(C(=O)Nc4ccc(Br)cc4F)CC3)sc2c1,"inconclusive: 0.199 µM [inhibitor, full curve]"
5,O=C(Cn1c2c(c(-c3ccccc3Cl)cc1=O)CCC2)N1CCC2(CC1)OCCO2,inactive
6,Cn1cc2c([N+](=O)[O-])cc([N+](=O)[O-])cc2n1,"inconclusive: 25.1 µM [inhibitor, single point]"
7,O=c1c(O)c(-c2ccc(O)c(O)c2)oc2c(O)c(O)cc(O)c12,active: 3.55 µM
8,CN1C(=O)/C(=C/c2cccn2-c2ccc3ccccc3c2)C(=O)NC1=S,active: 15.8 µM
9,C=C(C)[C@]12C[C@@H](C)[C@@]34O[C@](Cc5ccccc5)(O[C@@H]1[C@@H]3C=C(COC(=O)Cc1ccc(O)c(OC)c1)C[C@]1(O)C(=O)C(C)=C[C@@H]41)O2,"inconclusive: 20 µM [inhibitor, partial curve]"
10,COc1nnc(-c2ccc(N3CCCCC3)c(NC(=O)c3ccccc3)c2)c2ccccc12,"inconclusive: 12.6 µM [inhibitor, partial curve]"
11,Cc1cc(/C=C2\C(=O)NC(=O)N(c3ccc(F)cc3)C2=O)c(C)n1-c1cccc(C(=O)O)c1,"inconclusive: 12.6 µM [inhibitor, partial curve]"
12,CCn1ccnc1CN1CCCC(C(=O)c2cccc(C(F)(F)F)c2)C1 (stereo unspecified),inactive
13,CN1C(=O)N(C)C(=O)C(CCc2ccncc2)(CCc2ccncc2)C1=O,inactive
14,Cc1nc2cc(C(F)(F)F)ccc2n1C1CCN(Cc2nnnn2CCc2ccccc2)CC1,"inconclusive: 25.1 µM [inhibitor, single point]"
15,COc1cc2c(cc1O)-c1c(O)c(OC)cc3c1[C@H](C2)N(C)CC3,active: 28.2 µM
16,COc1ccc(NC(=O)C(=O)NNC(=O)C(C)Oc2ccc(Cl)cc2Cl)cc1 (stereo unspecified),"inconclusive: 20 µM [inhibitor, single point]"
17,C=CCn1c(O)c(C(CC)=Nc2ccc(N(C)C)cc2)c(=O)[nH]c1=O,"inconclusive: 28.2 µM [inhibitor, partial curve]"
18,O=C1NC(=O)N(Cc2ccco2)C(=O)/C1=C\c1cccn1CCOc1ccc(Cl)cc1,"inconclusive: 17.8 µM [inhibitor, partial curve]"
19,CCOc1cccc(CC(=O)NCc2ccc3c(c2)CCN3C(=O)c2cccc(C)c2)c1OCC,"inconclusive: 0.355 µM [inhibitor, full curve, poor fit]"
20,COC1=CC23CCCN2CCc2cc4c(cc2C3C1O)OCO4 (stereo unspecified),active: 35.5 µM
21,CC(n1cc(C[C@H](N)C(=O)O)c2ccccc21)n1cc(C[C@H](N)C(=O)O)c2ccccc21,"inconclusive: 15.8 µM [inhibitor, partial curve]"
22,CCOC(=O)c1ncc2[nH]c3ccc(OCc4ccccc4)cc3c2c1COC,"inconclusive: 2.82 µM [inhibitor, partial curve, poor fit]"

row,Compound,Potency
1,C=CCn1c(O)c(C(CC)=Nc2cc(OC)ccc2OC)c(=O)[nH]c1=O,"inconclusive: 28.2 µM [inhibitor, partial curve]"
2,O=[N+]([O-])c1cc(S(=O)(=O)c2ccc(O)c([N+](=O)[O-])c2)ccc1O,"inconclusive: 31.6 µM [inhibitor, single point]"
3,CC[n+]1c(-c2ccccc2)c2cc(N)ccc2c2ccc(N)cc21,active: 4.47 µM and active: 3.98 µM
4,COc1cc(OC)c(OC)cc1/C=C1\C(=O)NC(=O)N(Cc2ccccc2)C1=O,"inconclusive: 11.2 µM [inhibitor, partial curve]"
5,CC(C)c1ccc(-n2c(O)c(/C=N/NC(=O)c3ccncc3)c(=O)[nH]c2=O)cc1,"inconclusive: 10 µM [inhibitor, partial curve, poor fit]"
6,O=C1C=Cc2ccccc2C1=O,active: 2.51 µM
7,c1ccc(-c2ccc(-c3n(-c4ccccn4)c4ccccc4[n+]3-c3ccccn3)cc2)cc1,"inconclusive: 25.1 µM [inhibitor, single point]"
8,CCOP(=O)(Cc1ccc(C#N)o1)OCC,inactive
9,COc1ccc2[nH]cc(C3=CCNCC3)c2c1,"inconclusive: 28.2 µM [inhibitor, partial curve] and inconclusive: 14.1 µM [inhibitor, partial curve]"
10,Oc1ccc2c3c1O[C@H]1c4oc5ccccc5c4C[C@@]4(O)C(C2)N(CC2CC2)CCC314 (stereo partly specified),inactive
11,CC(C)c1ccc(N2C(=O)NC(=O)/C(=C\c3cnc(-c4ccccc4)nc3)C2=O)cc1,active: 22.4 µM
12,COc1ccc(C=C2C(=O)N(C)C(=O)N(C)C2=O)cc1CSc1ccccn1,"inconclusive: 11.2 µM [inhibitor, partial curve]"
13,COc1cc2c(cc1OC)[C@@H]1C(=O)c3ccc(OC)c(CC=C(C)C)c3OC1CO2 (stereo partly specified),inactive
14,COc1ccc(C(=O)O)cc1OC,inactive
15,COc1ccc2c(c1)CCC1[C@@H]2CCC2(C)[C@@H](NCCCCCCN3C(=O)C=CC3=O)CC[C@@H]12 (stereo partly specified),"inconclusive: 7.94 µM [inhibitor, full curve, poor fit]"
16,Cc1cccc(-n2c(=S)[nH]c3ccccc3c2=O)n1,inactive
17,C#C[C@]1(O)CC[C@H]2[C@@H]3CCC4=CC(=O)CCC4(C)[C@H]3CCC21C (stereo partly specified),inactive
18,O=C(O)Cc1ccccc1,inactive
19,O=C(O)CC1OCC=C2CN3CCC45c6ccccc6NC4C1C2CC35 (stereo unspecified),inactive
20,O=C1NC(=O)N(Cc2ccco2)C(=O)/C1=C/C=C/c1ccco1,active: 8.91 µM
21,Cc1ccc(N2C(=O)NC(=O)C3(Cc4ccccc4N4CCN(c5ccccc5)CC43)C2=O)cc1 (stereo unspecified),"inconclusive: 28.2 µM [inhibitor, single point]"
22,O=C(OC1CCN(CCCl)CC1)C(c1ccccc1)c1ccccc1,"inconclusive: 22.4 µM [inhibitor, partial curve]"

row,Compound,Potency
1,CC(C)C[C@H]1C(=O)N2CCC[C@H]2[C@]2(O)O[C@](NC(=O)[C@@H]3C=C4c5cccc6[nH]c(Br)c(c56)C[C@H]4N(C)C3)(C(C)C)C(=O)N12,"inconclusive: 15.8 µM [inhibitor, partial curve]"
2,O=c1c2ccccc2nc(/C=C\c2ccc(F)cc2)n1-c1ccccc1F,inactive
3,c1ccc(CCCN2CCN(CCOC(c3ccccc3)c3ccccc3)CC2)cc1,"inconclusive: 35.5 µM [inhibitor, single point]"
4,COc1ccc(OCC(=O)N2CCN(Cc3cc(=O)n4nc(-c5ccccc5C)sc4n3)CC2)cc1,"inconclusive: 3.55 µM [inhibitor, full curve]"
5,CN1C(=O)N(C)C(=O)C2(Cc3c(ccc4ccccc34)N(C)C2)C1=O,"inconclusive: 31.6 µM [inhibitor, partial curve]"
6,C=CCn1c(O)c(C(C)=Nc2ccc(N(CC)CC)cc2)c(=O)[nH]c1=O,"inconclusive: 14.1 µM [inhibitor, partial curve]"
7,O=C1NC(=O)N(Cc2ccccc2)C(=O)/C1=C\c1ccco1,"inconclusive: 10 µM [inhibitor, partial curve]"
8,Cc1ccc(N2C(=O)NC(=O)C(CCc3ccncc3)(Cc3cccc(Cl)c3Cl)C2=O)cc1 (stereo unspecified),"inconclusive: 5.62 µM [inhibitor, partial curve]"
9,CCS(=O)CCSP(=O)(OC)OC (stereo unspecified),"inconclusive: 17.8 µM [inhibitor, partial curve]"
10,Cc1cc(N2CCCCC2)nc2ccc(NC(=O)/C=C/c3ccc(OC(C)C)cc3)cc12,active: 2.82 µM
11,CCCCn1c(O)c(C(CC)=Nc2ccc3c(c2)CCC3)c(=O)[nH]c1=O,"inconclusive: 25.1 µM [inhibitor, partial curve]"
12,CC(C)NCC(O)c1ccc(N)c(C#N)c1 (stereo unspecified),inactive
13,CNCC(O)c1ccc(O)cc1 (stereo unspecified),inactive
14,Cc1ccc2oc(-c3ccc(Cl)cc3)c(O)c(=O)c2c1,"inconclusive: 0.794 µM [inhibitor, partial curve, poor fit]"
15,COc1ccc(-c2c(C)nn3c(-c4ccccc4)cc(C)nc23)cc1OC,"inconclusive: 3.55 µM [inhibitor, full curve]"
16,COc1cc(NC(=O)c2ccco2)ccc1NC(=O)c1ccccc1Cl,"inconclusive: 28.2 µM [inhibitor, partial curve, poor fit]"
17,COC(=O)c1c(C)n(Cc2ccc3c(c2)OCO3)c2ccc(O)cc12,"inconclusive: 28.2 µM [inhibitor, single point]"
18,Cc1ccc(N2C(=O)NC(=O)/C(=C\c3cccn3C(C)(C)C)C2=O)cc1,"inconclusive: 28.2 µM [inhibitor, single point]"
19,Cc1cccc(N2CCN(C(=O)C34CC5CC(CC(C5)C3)C4)CC2)c1C,"inconclusive: 10 µM [inhibitor, partial curve]"
20,CCCCn1cnc2cc(NCc3cccc(OC)c3O)ccc21,"inconclusive: 15.8 µM [inhibitor, partial curve]"
21,Cc1ccc2c(c1)CC1(CN2C)C(=O)NC(=O)N(C(C)C)C1=O (stereo unspecified),"inconclusive: 35.5 µM [inhibitor, single point]"
22,CCCCC(=O)N/N=C/c1c(O)n(CCC2=CCCCC2)c(=O)[nH]c1=O,"inconclusive: 14.1 µM [inhibitor, partial curve, poor fit]"
